At least one peptide structure holds a part that was inferred or is arguable (an end, a ring closure or a residue). Marks after values point to notes of the source that are not given here. Non-standard residues stand in square brackets, D forms with d. Residues, ends and D or L forms follow the SMILES beside them. Hyp = O=C(O)[C@@H]1C[C@@H](O)CN1
Tests used:
[1] = test system: osteoclast (mouse primary bone marrow cell culture); test: Evaluation Test 1: osteoclast differentiation culture on plastic dish (TRAP-positive multinucleated giant cells); format: cell-based; details: final concentration 625 μM, 6 days culture, control (blank) = 100, n = 6
Description: Evaluation was made in conformance with an osteoclast differentiation culture method by Kobayashi Y. et al. [J. Bone Miner. Metab. (2004) 22: p. 318-328]. […] As a control, TRAP inhibiting activity when no peptide was added (blank) was also examined.

[2] = test system: osteoclast (precursor cells of osteoclasts and bone marrow stromal cells on ivory piece); test: Evaluation Test 1: Pit assay, osteoclast cultured on ivory piece; format: cell-based, mouse; details: control (blank) = 100, n = 6; for Relative number of TRAP-positive multinucleated giant cells (osteoclasts) by cultivation on ivory piece (%): cultured about 1 week on ivory piece; for Relative number of Pit (%): resorption cavities on ivory piece, about 1 week
Description: Further, the inhibition degree of differentiation and activation of osteoclast by each of the peptide molecules, and amino acids was evaluated by the following Pit assay. In brief, the Pi assay in which osteoclast is cultured on an ivory piece was conducted in conformance with Kakudo S, et al J. Bone Miner. Metab. (1996) 14: 129-136. The concrete procedure is as follows. […] Then, after removing the cells from the ivory piece with a silicone rubber policeman, the ivory piece was stained with an acid hematoxylin solution for several minutes. At this time, the number of TRAP staining positive multinucleated giant cells (osteoclast) was counted by TRAP staining, and a relative number with respect to the number of cells in control (blank) was calculated. Then, the Pit number (number of resorption cavity) by osteoclast was counted under a microscope, and the degree of inhibiting osteoclast by each peptide to be tested was indicated by a relative ratio to blank (control).

[3] = test system: Male Wistar rat, skin wound; test: Evaluation Test 4: recovery of tropocollagen amount in dermis of skin after depilatory skin wound; format: in vivo; details: feed plus intragastric administration, n = 4
[4] = test system: femur-tibia joint of C57BL/6J mice; test: Evaluation Test 6: oral feed, femur-tibia joint evaluation (micro CT, hematoxylin sections); format: in vivo, mouse; details: oral feed with peptide and potassium phosphate, three weeks
[5] = test system: femur-tibia joint of C57BL/6J mice (C group); test: Evaluation Test 7: injection into femur-tibia joint space of C group mice, pathological evaluation; format: in vivo, mouse; details: n = 4
[6] = After 1 week from injection of 5 mmol/L solution (0.5 mL) into joint space
[7] = After 3 weeks from injection of 5 mmol/L solution (0.5 mL) into joint space

Row | SMILES | Relative area of TRAP-positive multinucleated giant cells (osteoclasts) by cultivation on plastic dish (%) [1] [%] | Relative number of TRAP-positive multinucleated giant cells (osteoclasts) by cultivation on plastic dish (%) [1] [%] | Relative number of TRAP-positive multinucleated giant cells (osteoclasts) by cultivation on ivory piece (%) [2] [%] | Relative number of Pit (%) [2] [%] | Skin collagen amount in skin wound recovery process (ratio of tropocollagen to total collagen amount)(%) ([3]; 0 day after depilatory treatment) | Skin collagen amount in skin wound recovery process (ratio of tropocollagen to total collagen amount)(%) ([3]; 1 day after depilatory treatment) | Skin collagen amount in skin wound recovery process (ratio of tropocollagen to total collagen amount)(%) ([3]; 2 days after depilatory treatment) | Skin collagen amount in skin wound recovery process (ratio of tropocollagen to total collagen amount)(%) ([3]; 4 days after depilatory treatment) | Pathological score (articular cartilage part) ([4]; n = 4) | Relative thickness of articular cartilage ([4]; n = 4, N group 1.0) | Pathological score (articular cartilage part) [5, 6] | Relative thickness of articular cartilage [5, 6] | Characteristic pathological finding in joint cancellous bone part in comparison with N group ([5]; After 1 week from injection) | Pathological score (articular cartilage part) [5, 7] | Relative thickness of articular cartilage [5, 7] | Characteristic pathological finding in joint cancellous bone part in comparison with N group ([5]; After 3 weeks from injection)
1 | N[C@@H](Cc1ccccc1)C(=O)N1C[C@H](O)C[C@H]1C(=O)O [Phe-Hyp] (H-Phe-[Hyp]-OH) | 118 ± 21 | 119 ± 16 | 98 ± 11 | 109 ± 15 | – | – | – | – | – | – | – | – | – | – | – | –
2 | CC(C)C[C@H](N)C(=O)N1C[C@H](O)C[C@H]1C(=O)O [Leu-Hyp] (H-Leu-[Hyp]-OH) | 83 ± 27 | 88 ± 22 | 101 ± 12 | 91 ± 11 | – | – | – | – | – | – | – | – | – | – | – | –
3 | C[C@H](N)C(=O)N1C[C@H](O)C[C@H]1C(=O)O [Ala-Hyp] (H-Ala-[Hyp]-OH) | 110 ± 31 | 102 ± 4 | 89 ± 13 | 101 ± 12 | – | – | – | – | – | – | – | – | – | – | – | –
4 | O=C(O)CNC(=O)[C@@H]1C[C@@H](O)CN1 [OG, Hyp-Gly, reference compound] (H-[Hyp]-Gly-OH) | 7 ± 1 | 9 ± 2 | 9 ± 5 | 2 ± 2 | 2.4 ± 0.2^b % | 3.1 ± 0.3^c % | 4.0 ± 0.2^c % | 5.2 ± 0.3^d % | 0.3 ± 0.05 | 1.0 ± 0.2 | 0.4 ± 0.04 | 0.8 ± 0.2 | a) | 0.2 ± 0.03 | 1.0 ± 0.1 | b)
5 | N[C@@H](CO)C(=O)N1C[C@H](O)C[C@H]1C(=O)O [Ser-Hyp] (H-Ser-[Hyp]-OH) | 91 ± 10 | 96 ± 5 | 105 ± 4 | 98 ± 12 | – | – | – | – | – | – | – | – | – | – | – | –
6 | O=C(O)CNC(=O)[C@@H]1C[C@@H](O)CN1C(=O)[C@@H]1CCCN1 [POG, Pro-Hyp-Gly] (H-Pro-[Hyp]-Gly-OH) | 113 ± 11 | 109 ± 15 | 91 ± 11 | 97 ± 13 | – | – | – | – | – | – | – | – | – | – | – | –
7 | O=C(O)[C@@H]1C[C@@H](O)CN1C(=O)[C@@H]1CCCN1 [PO, Pro-Hyp] (H-Pro-[Hyp]-OH) | 120 ± 12 | 130 ± 9 | 17 ± 6 | 9 ± 2 | – | – | – | – | – | – | – | – | – | – | – | –

Source: patent US20140024596A1, “DISEASE INHIBITING AGENT” (NITTA GELATIN INC., priority 2010, published 2014)
